Data as given in article PMC4336329 (PLoS ONE, 2015).
About 14,000 (4.5%) of roughly 310,000 compounds showed an effect of 50% or more. The effect is printed as a negative number. This is one part of the list.

Molecular target: human ether-à-go-go-related gene (hERG) potassium channel (human, UniProt Q12809)
Assay: primary screen, population patch clamp on CHO cells stably expressing hERG
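Further: peak tail current of the secondary pulse compared with the same well before compound.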

Sequence of human ether-à-go-go-related gene (hERG) potassium channel (Q12809 whole entry, looked up): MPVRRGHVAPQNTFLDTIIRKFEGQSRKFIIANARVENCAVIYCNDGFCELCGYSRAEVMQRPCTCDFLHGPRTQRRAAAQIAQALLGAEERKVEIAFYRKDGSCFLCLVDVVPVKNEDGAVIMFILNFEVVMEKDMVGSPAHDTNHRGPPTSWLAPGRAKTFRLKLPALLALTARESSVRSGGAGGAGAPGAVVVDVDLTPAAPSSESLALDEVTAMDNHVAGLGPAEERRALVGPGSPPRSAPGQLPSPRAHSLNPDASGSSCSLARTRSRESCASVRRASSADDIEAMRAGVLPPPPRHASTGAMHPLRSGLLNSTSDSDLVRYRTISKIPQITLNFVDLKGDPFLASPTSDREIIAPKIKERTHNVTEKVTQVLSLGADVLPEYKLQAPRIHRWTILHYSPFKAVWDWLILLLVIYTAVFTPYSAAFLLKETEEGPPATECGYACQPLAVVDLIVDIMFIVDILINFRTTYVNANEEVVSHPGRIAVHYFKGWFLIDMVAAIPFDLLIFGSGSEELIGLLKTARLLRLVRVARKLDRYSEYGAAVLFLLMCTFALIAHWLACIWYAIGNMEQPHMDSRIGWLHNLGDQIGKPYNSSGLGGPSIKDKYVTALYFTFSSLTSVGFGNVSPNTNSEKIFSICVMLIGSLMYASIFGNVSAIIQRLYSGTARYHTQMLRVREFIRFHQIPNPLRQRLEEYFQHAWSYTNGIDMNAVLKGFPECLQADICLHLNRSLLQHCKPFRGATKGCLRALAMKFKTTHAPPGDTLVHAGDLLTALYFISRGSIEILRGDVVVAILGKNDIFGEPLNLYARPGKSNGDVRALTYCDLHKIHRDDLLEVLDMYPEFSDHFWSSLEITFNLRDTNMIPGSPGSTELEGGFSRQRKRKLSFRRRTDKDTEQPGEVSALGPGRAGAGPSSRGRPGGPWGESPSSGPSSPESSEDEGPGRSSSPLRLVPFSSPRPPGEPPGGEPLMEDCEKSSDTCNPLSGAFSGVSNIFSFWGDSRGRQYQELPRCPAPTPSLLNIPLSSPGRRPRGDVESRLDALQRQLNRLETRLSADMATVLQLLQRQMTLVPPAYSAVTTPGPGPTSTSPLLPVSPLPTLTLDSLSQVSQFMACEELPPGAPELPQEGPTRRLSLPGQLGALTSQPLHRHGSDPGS

SMILES | hERG current change (%, negative = inhibition) at 10uM [%]
CC(C)(C)c1ccc(OCCC(=O)NC2=NCCS2)cc1 | 10.9
Cc1cc(C)n(C(=O)CNC(=O)C(c2ccccc2)c2ccccc2)n1 | -3
Cn1c(OCc2ccc3c(c2)OCO3)nc2c1c(=O)n(Cc1ccc(Cl)c(Cl)c1)c(=O)n2C | -5.5
COc1ccc(OC)c(/C=C2\SC(N3CCCCC3)=NC2=O)c1 | -6.02
NC(=O)c1ccc(C(F)(F)F)cn1 | 17.8
CCN1CCN(CCNC(=O)c2ccc(CS(=O)c3ccc(Br)cc3)o2)CC1 (centres unmarked) | -2.5
C/C(=N\NC(N)=O)c1ccc(Cl)cc1 | 6.12
CCc1nnc(N/N=C/c2ccccc2F)n1N.Cl | 28.9
CCCCCCc1cc2cc(S(=O)(=O)c3ccc(C)cc3)c(=O)oc2cc1O | 13.6
CCC12CN3CCN(CC(C3)/C1=N/NC(=O)c1ccncc1)C2 | 21.2
CCN(CC)S(=O)(=O)c1cccc(C(=O)OCC(=O)NCc2ccccc2OC)c1 | -33.1
CC(C)(C)c1ccc(-c2nc(NCc3cccnc3)c3ccccc3n2)cc1 | -0.796
COc1ccc(OC)c(C2=NOC(C(=O)NCc3cccs3)C2)c1 (centres unmarked) | -13.5
Cc1ccc(S(=O)(=O)Nc2cc(-c3ccccc3)nn2C)cc1Cl | 12.2
COc1ccc(Nc2ccc(S(=O)(=O)N3CCCCCC3)cc2[N+](=O)[O-])cc1 | -5.69
N#CNC1=NCN(CCc2ccccc2)CN1 | 14.2
CCCOC(=O)C1[C@H]2C(=O)N(CCCOC)C[C@]23C=C[C@H]1O3 (some centres unmarked) | -3.36
Cc1ccc(N2CC(C(=O)OCC(=O)Nc3ccc(Cl)cc3)CC2=O)cc1 (centres unmarked) | -3.67
CS(=O)(=O)N1CCN(Cc2ccc([N+](=O)[O-])cc2)CC1 | -23.6
CCCCN(C(=O)c1cccc(S(=O)(=O)N2CC(C)OC(C)C2)c1)c1c(N)n(CC(C)C)c(=O)[nH]c1=O (centres unmarked) | 5.66
Cn1c(SCC(=O)NCc2ccco2)nnc1-c1ccc(S(=O)(=O)N2CCOCC2)cc1 | -24.5
COc1cccc(Nc2n[nH]c(=S)s2)c1 | 27.2
COc1ccc(S(=O)(=O)NCC(=O)NCCc2ccc(OC)c(OC)c2)cc1 | 14.9

SMILES | hERG current change (%, negative = inhibition) at 10uM [%]
COc1cccc(CNC(=O)c2ccc(S(=O)(=O)N3CCCC3)cc2)c1 | -4.54
CC1CCN(CC(=O)c2cccs2)CC1 | -2.86
O=C(CSc1nccc(=O)[nH]1)N1N=C2/C(=C/c3ccco3)CCCC2C1c1ccco1 (centres unmarked) | 17.4
O=C(Oc1ccc(C(=S)N2CCOCC2)cc1)c1cccc(Cl)c1 | 20.6
CCN1CCN(C(c2cccs2)C(C)NS(=O)(=O)c2ccc(Br)cc2)CC1 (centres unmarked) | -48.1
O=C(CSc1nc2c(sc3ccccc32)c(=O)n1CCCN1CCOCC1)NCC1CCCO1 (centres unmarked) | -14.3
Cc1cc(C(F)F)nn1CC(=O)NC1CCCC1 | 1.56
CO/N=C/C(=N\Nc1ccc(C)cc1)C(=O)c1ccc(OC)cc1 | 17.1
CC1CCN(Cc2cc(=O)oc3cc(O)c(Cl)cc23)CC1 | 9.11
Cc1nnc(NC(=O)CSc2ccc(-c3cccnc3)nn2)s1 | -3.15
O=C(Nc1nnc(C2CC2)s1)c1ccccn1 | 6.44
N#Cc1nc(-c2cccs2)oc1N1CCN(c2ccccc2)CC1 | 0.553
CC1(C)NC(=O)N(CC(O)COc2ccc(-c3ccc(C#N)cc3)cc2)C1=O (centres unmarked) | -14.8
O=C(O)CC(c1ccc(C(F)(F)F)cc1)N1Cc2ccccc2C1=O (centres unmarked) | 15.9
COCCN(C(=O)CNC(=O)c1ccco1)C(C(=O)NC1CCCC1)c1ccc(OC)c(OC)c1 (centres unmarked) | -3.01
Cc1occc1C(=O)Nc1sc2c(c1C(N)=O)CCCCC2 | 8.66
CNc1nc(SCc2ccc(C)cc2)nc2c1CCCC2 | -3.23
CN(C(=O)CSc1nnn(C)n1)c1ccccc1 | 10.7
Cc1cc(C)n2nc(S(=O)(=O)NC(C)(C)C)nc2n1 | 16.5
COc1ccc(-c2ccc3c(c2)c(-c2cccs2)c(-c2cc(OC)cc(OC)c2)n3C)cc1 | 19.6
CC1CCc2c(sc(NC(=O)C3CCCO3)c2C#N)C1 (centres unmarked) | 9.45
COc1ccc(/C=N/NC(=O)CNc2n[nH]c(=O)[nH]c2=O)cc1OC | 3.73
O=C(Nc1cccc(Cl)c1)Nc1nc(-c2ccccc2)cs1 | 23.3

SMILES | hERG current change (%, negative = inhibition) at 10uM [%]
CCN(CC(=O)Nc1ccc(NC(C)=O)cc1)C(=O)C1CCC1 | 12.5
C=CCn1c(O)c(C=NCCN2CCOCC2)c(=O)[nH]c1=S | 4.84
Cc1cccc(C(=O)Oc2ccc(/C=N/NC(=O)c3ccncc3)cc2)c1 | 3.1
Cc1ccc(F)cc1NC(=O)N1c2ccccc2NC(=O)CC1C (centres unmarked) | 2.32
CC(C)(C)c1ccc(NC(=O)COC(=O)C2(C)CC2(Cl)Cl)cc1 (centres unmarked) | 11.1
CSc1ccc(CNCCCN(C)C)cc1.Cl | -9.77
CCOC(=O)c1nnn(CC(=O)N2N=C(c3cccc4ccccc34)CC2c2ccccc2)c1C(=O)OCC (centres unmarked) | -2.78
COCCCn1c(C)cc(C(=O)CN2c3cccc4cccc(c34)S2(=O)=O)c1C | -12.9
Cc1cc(C)n(CC(O)CN(c2ccccc2)S(=O)(=O)c2ccc3ccccc3c2)n1 (centres unmarked) | -6.13
Cc1ccccc1C1=NC(C(F)(F)F)(C(F)(F)F)c2c(n(C)c(=O)n(C)c2=O)N1 | 3.5
CCOc1ccc(CNC(=O)Cn2c(=O)c3cccn3c3ccccc32)cc1 | 9.35
O=C(c1cc2ccccc2oc1=O)N1CCC2(CC1)OCCO2 | -8.56
CC(=O)c1ccc(NC(=S)Nc2ccn(Cc3ccc(Br)cc3)n2)cc1 | 14.5
COC(=O)C1=NN(c2ccc(C)cc2)C2C(=O)N(c3ccccc3OC)C(=O)C12 (centres unmarked) | 8.27
COc1ccc(/C=C/C(=O)c2cc(F)ccc2OC(=O)c2ccccc2)cc1OC | 0.112
CCOC(=O)CNC(=O)CSc1ncnc2c1nnn2-c1ccc(F)cc1 | 7.2
Cc1cc(C)c(NC(=O)CC(C)(C)C)c(Cl)c1 | 3.6
CCCCSc1nnc([C@@H](NC(=O)OC(C)(C)C)C(C)C)o1 | -15.6
CN(C)C(=O)Oc1cccc(OCc2n(C)c3ccccc3[n+]2C)c1.[Cl-] | 14.7
O=C(Nc1ccc2c(c1)OCO2)C1CCN(C(=O)c2ccc([N+](=O)[O-])cc2)CC1 | -84.2
CC1(C)Oc2ccc(C(=O)NN)cc2NC1=O | 17.5
CCC1CCc2c(sc(N)c2C(N)=O)C1 (centres unmarked) | 4.85
COc1ccccc1/C=C/CN1CCCC(CCC(=O)NCc2ccc(F)c(F)c2)C1 (centres unmarked) | -70

SMILES | hERG current change (%, negative = inhibition) at 10uM [%]
Cc1ccc(S(=O)(=O)NC(C)C(=O)Nc2cccc([N+](=O)[O-])c2)cc1 (centres unmarked) | -10.2
COc1ccc(CNC(=O)CN(C(=O)Cn2nnc(-c3ccccc3F)n2)c2ccc(C)cc2)cc1 | -7.34
COc1c2occc2c(OC(C)=O)c2c(=O)cc(C)oc12 | 17.2
O=S(=O)(NC1CCCCC1N1CCCCC1)c1ccccc1 (centres unmarked) | 15.8
O=C(NCc1cccs1)C1CCN(S(=O)(=O)N2CCCC2)CC1 | -1.59
Cc1c(NC(=O)c2ccc(S(=O)(=O)N3CC(C)OC(C)C3)cc2)c(=O)n(-c2ccccc2)n1C (centres unmarked) | -4.38
COc1cccc2c1cc1c(=O)n(CC(=O)NCCCN3CCN(C)CC3)nc(C)n12 | 8.19
O=C(NCc1ccco1)c1cccc2c1C(=O)N(C1CCCCC1)C2 | -0.569
COc1cc(C2C(C#N)=C(N)OC3=C2C(=O)CCC3)c([N+](=O)[O-])cc1OC (centres unmarked) | -1.77
O=S(=O)(c1ccc2c(c1)OCO2)N1CCN(c2nnnn2-c2ccccc2)CC1 | -14.2
O=C(Nc1cccc(-c2cccc(F)c2)c1)C1CCN(C2CCC2)CC1 | -71.5
N#Cc1ccc(NC(=O)Cn2c3[n+](c4ccc(C(F)(F)F)cc42)CCCCC3)cc1.[Br-] | 7.73
COC(=O)c1sc2ncn(N)c(=O)c2c1C | 13.4
Cc1ccc(Cl)cc1N=C(N)N=C(N)N | -1.74
Cc1nc(N)sc1N=Nc1ccccc1C(F)(F)F | 19.1
COc1cc(C(=O)NCC(c2ccco2)N2CCCC2)ccc1OCc1ccccc1 (centres unmarked) | -40.5
COc1cc(OC)cc(N(C(=O)CNC(=O)c2cccs2)C(C(=O)NCC2CCCO2)c2ccc(OC)c(OC)c2)c1 (centres unmarked) | -0.545
Cc1ccc(NC(=O)C2CCCN(c3cnccn3)C2)c(C)c1 (centres unmarked) | -16.3
CC(NC(=O)c1ccccc1)c1ccc(Br)cc1 (centres unmarked) | 18.1
CC(=O)c1cccc(N(C(=O)c2cnccn2)C(C(=O)NCc2ccccc2)c2ccco2)c1 (centres unmarked) | 8.88
